In the supplement of paper PMC10681739:
Whole data set: some 4,000 sequences, median “arbitrary fluorescence units” near 830, cut for the highest 2% near 6,500. Most of the strongest results are missing from this list.

What follows are sequences tested against RUNX1 (UniProt Q01196) (assay: RUNX1 binding intensity (PBM fluorescence), RUNX1 alone (arbitrary fluorescence units); higher = stronger binding). Settings: RUNX1 concentration 2 nM; ETS1 concentration 0 nM.
Description: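 gcPBM on 36-bp genomic-derived probes (partner site mutated) containing one RUNX1 site and no ETS1 site. Recombinant human RUNX1 (2 nM) was incubated alone or with ETS1 (25 nM) and detected by anti-RUNX1 antibody fluorescence. Values are medians over 4 replicate spots (not normalised). The probes sit in constant array flanks that are not printed.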
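Note: Full-length recombinant human RUNX1 bound to double-stranded DNA microarray spots, detected with an Alexa488-labelled secondary antibody after the anti-RUNX1 primary, read as scanned spot fluorescence.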

Chain of UniProt Q01196 (Q01196 whole entry): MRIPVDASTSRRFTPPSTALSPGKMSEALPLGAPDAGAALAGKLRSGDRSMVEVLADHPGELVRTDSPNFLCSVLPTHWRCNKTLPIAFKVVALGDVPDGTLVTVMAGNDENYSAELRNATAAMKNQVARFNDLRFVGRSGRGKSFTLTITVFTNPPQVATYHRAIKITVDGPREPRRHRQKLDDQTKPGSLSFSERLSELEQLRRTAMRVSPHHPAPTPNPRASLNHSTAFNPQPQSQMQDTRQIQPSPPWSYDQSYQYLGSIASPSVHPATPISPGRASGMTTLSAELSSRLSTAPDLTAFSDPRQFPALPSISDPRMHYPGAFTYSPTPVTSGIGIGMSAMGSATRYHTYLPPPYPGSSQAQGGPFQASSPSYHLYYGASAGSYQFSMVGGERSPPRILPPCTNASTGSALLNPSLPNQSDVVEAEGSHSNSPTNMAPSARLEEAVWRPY

Row | Sequence | RUNX1 binding intensity
1 | CTAACCCTGCGTCCTCTTAGTGGTTTCCCCCAACCT | 1270
2 | CCGAATCTGCGGTGGAACCCGTATGTGGCCGAGGCC | 1090
3 | GTTGGCGTAACCGCTAGGTTCTCTGGGAATTGTAGG | 1090
4 | CAGCATGTGGGTGCACACACCGATTCCTTAGAGGTT | 811
5 | CTAGGGAGAGGAGGTGAGTTTGTCTGTGGGGGTGGT | 771
6 | TAGGTTTGTGGTAGAAGCTGCAGGCACTTGCTGTCC | 876
7 | AACGCGTCCATGCTGCGCCTCCCCGCAGGCCTTGCT | 888
8 | TGCTTAGCAGGCAGTTAGTCTGCCTGTGGTAGCTCC | 664
9 | GTAGGGGAGGGACCGCAGGGAGGCGGCAGTCCTTGT | 931
10 | TCAAGTGTTTACCACTGGGTCACCAGGCAGTGGCTT | 786
11 | ACTCCCACCGCAGGCCCCACTACGGACCGGGAGTCA | 1640
12 | GACCGTTTCGGGTCCCGCCTGAGCCCGCAGCACAGG | 826
13 | CAAACCACTTAAGTGTCCTCTGTAACCGTACGGGGG | 879
14 | CTTTGTGGGCGCTCCCTGCGTCGCGGCAGTTGGGAG | 771
15 | CCGTGGGCGGTTAAAAGGCCCCGTATGTTCAGGGGG | 774
16 | TGCCCGCGGTTCGCGTCACACCCGTAAGCAGGGGCC | 844
17 | CTTACCACACGCCGCGAACGCCTTAACTCCCGGTCC | 1710
18 | TCTTCTTGCTCCCCCACCCCAAAAGCCACAGGTGAC | 1180
19 | TCCCCAGGAATACCACACACCACTTGCCCTACAACA | 1650
20 | GCATGCTCAGTTGCGGGCGGCGTCCGAAGGAGGTGG | 748
21 | CTCTTCAGCACGAAATGATGTGGTAAAACAGGGTTA | 862
22 | GGCACGAAAGAGCTGATGCATTTCAACCGCAGCCTG | 1160
23 | ATGTCTTTAACCACACTGAGCTCCCGGGCCCTGCAC | 1410
24 | CAAGAGCCGAAAGTCCCTTGTGCCGCAGTCCTTCCC | 847
25 | AAACAAGCGGTAACGCGACCACTGCCGCCACAGCCT | 800

Row | Sequence | RUNX1 binding intensity
26 | GGGCTTATCTAGCCACAGCAGAACATGCTGCTCTGG | 756
27 | TCACAATCGCCCACAAAGACAGCAAGTAACTGTCAG | 892
28 | TGGTGGGTGCCCACAGAGCACTGCCGCATTCCTGAG | 797
29 | TGACATTCCCGGCCCCACCTCGGCCCGCAGCGCCGC | 906
30 | TGTGATAAGGATCTTCGTGTGCCTTGTGGTCAGGTG | 846
31 | GTTGCGGGCCGAAGAAGCTCATGAGGGAGACGCAGG | 831
32 | TGAGGGACTTGCGGGCTCGGTCCTTGCTGAGAGGTG | 773
33 | AGAAAAGGAGATGGTGGGCTGCACACCACAGCTCAC | 730
34 | TTCAGTGGGTGGTTACTCGGCATGCTGTTGGGCTTC | 795
35 | CTGCGATTTGCTGGCCTACCGTCTGGTGTGGTACCT | 810
36 | ACCAAAACACACCCTGGGGCCCCACACAATTAGTGA | 812
37 | CCGTGGTTTGTTTTACATACCCCAGCATGCTGTATG | 829
38 | TAAATAGGAGGTCAGAGTTTACTGCCGAACCCACAG | 732
39 | GCAGCGCGGGTTCAGCTCCAACCTTGCTGGAGACCC | 840
40 | TGTTAATGCGGGATCTTGCTGTCCGTTCCCGAGATG | 870
41 | CATTTGATGTGGTTGATTACTGCCTGCTTTAATTTT | 1080
42 | CAGTCTGGCCATGTGGTGCCACTTCTTCTCTGGTTT | 785
43 | CCAAAAAGGATGGAAACCAGAAAGCCACAGAATGGT | 940
44 | TTCTCATCTGGCCGGCTTGCTTTCCCCTGCGGTCGT | 1090
45 | GTCGGAGATGGTGGTCACGAGCGCTTACGGGTCAGC | 704
46 | ATTCGTTGCGGCAGCGCAGCAGCCACCGTACAAGCT | 775
47 | TGCTCACCTCCTCTGCAGCTTTGTGGGTGCCATCAC | 826
48 | GATATGCAGAAAACCAACCTACAGGCAGGTGAGTCA | 765
49 | AAAGCTCCGCGCGGTTCCCACCCCTGAACTGCCTCT | 902
50 | CTCAGTGTGGTTAAAGACATGCAAGGCAGCATAGAA | 1180

Row | Sequence | RUNX1 binding intensity
51 | CTCCCGACCACCGCCGCAGCGCGGAGGGGCGTCCCC | 1020
52 | CCACCCTCCGTACGGCCGCGACCGCGAGGAGGAAGA | 851
53 | GCGCTACCGGTTGCCGAGACGCGACCACACAACCAA | 791
54 | TGTTTACTGCCTGGAGGCACTTTGGTTTTTCTTTCT | 1070
55 | CGAAGAGGCTGGGTGGTAAACAGGAGGTGGGCGCTC | 776
56 | AGGAGCCGGGAGTCCCGCCCACGCACCCCCCGCAGG | 813
57 | TGTGTCAACACCGCGGGCAGCTTACGGTGCGACTGT | 698
58 | CCGGTCGCCGCGGTCCTCTGCGCGGGATCTGGCTCT | 879
59 | ACTAGATTAACCACATCCACTTACGGTGGGGCTGGA | 1400
60 | CCTCTTGGTTTACTGTCCCTCACCACAAGAAGCAGT | 1260
61 | AGGGTGTTCTAACCACGAGCTCAGGCTGCTGTCTGT | 918
62 | CTGCGGCCTGACGCCCTACGCCTACAATTCCCAGAG | 840
63 | CCCCGCGGTCGTCGCGCGAACTCCTGCCGCGCGTCG | 749
64 | GCCCCGCCCACAGAGGAGGGTACCCCGCCGTAAGCC | 886
65 | CCCAGAGCTGCCGATTGGCTCTTCTGTGGTGGCGGG | 741
66 | AAGTGACCGCGCGGTGCGCCGGCCCGCGAGGAGACG | 814
67 | ACGTCAGCCTCCCCCGGGCTCGCGGTAAGGTGTGAG | 788
68 | AAAACCCGGGAACCGCCGCGAACCTGAACCGCCTTC | 886
69 | TGTTGGTGGTTAAAAAGCAATTTGGGACTGCCTCTT | 894
70 | CGGCGCTCCCACCGCGAGCCGACGGGAACTGGAGTC | 911
71 | TGGGTCGCGGTGGCTGTGAGGGCCGAAGAAAAGGCC | 820
72 | ACATGTCCTTTTGGTATTTAAAGTAACCACACAGAA | 867
73 | CTGCCAACCTGTGGGCGCCTGGCTTGCTGCCTGGGC | 642
74 | GAGCGCAGGACGGGAGCTCGGTGCGGGTGCGGCCTC | 748
75 | TTCTTCAATTCCTTCTCTCCGTGGTTTCGCCATTAG | 1660

Row | Sequence | RUNX1 binding intensity
76 | GAGTGGGCGGAGATCCGTGCCTGGCAGACCACAAAG | 813
77 | CCATTCCTGCGGCCTTCATTGCTGCATCAGGTGGAG | 895
78 | GAACCCGGCGGTCACGGGAATAGCCGTCGCGCCGAG | 720
79 | TGGGGAGGCAGCAAACGGGCCTTGTGGTTGGGGGGT | 840
80 | ACACAGTGTTTGTGGTGAATGGCTTCAGGCCCCATA | 1080
81 | AACTGCGGTGGGCCCCGCCCAGTTCGAACGTCCCTG | 931
82 | GACAAGATTGCGGGTGGCAACCCCATCAGGTTTGTT | 1410
83 | AGGCTCATTGCCTGTTTTCATGTGGTTTAGAGAAAA | 1030
84 | GCGGGGCGCAGGGAGCGGGGCGAAACCACTGTTGGC | 791
85 | TGATTCTGGGACATGTCGATCGGCTGTGGGCGGCGC | 669
86 | TGATGTAGAAACCGCTCGGCTTCAGGCGAGGGTGGG | 723
87 | CCGGTCGGGGCCGCAGCCGCTTACGGAGCCGCGGGC | 770
88 | AACAACCCAAAAACCAACTCGGCGGCAGGCCTTGGC | 823
89 | CTAATGGCGAAACCACGGAGAGAAGGAATTGAAGAA | 787
90 | CCCAGCCTGAGAAGGGACTGAGGCTGCGGCGCAGAA | 764
91 | GCCCTGCGGCGCCTGCGCGCTAAAAAGAGGACGTTT | 703
92 | CCGCCCCCGTACGGTCACAGCACCCAAACCGCAGGC | 3120
93 | GAAACTTAGTCTGTGGGGAGAAGGACGTATCTTTGC | 756
94 | TGTTTAGATGTGGGCACACCTGACATGCGCGGGCTC | 663
95 | TTTTTTGCGCCTGTAGGGTCACATTGTGGTTGATTG | 1030
96 | GCAAGATCCCGCATTAACATCTCGGGAATGGACAGC | 731
97 | TCCCCACCTCCTTTAAAACGATGAGATAACCACATG | 1440
98 | TGTGGAGACATGAAGCACTAACCTCAAACCTCTTTC | 876
99 | TTTCTTTGTGGGAGGGAGTGGGGGAGGTTGACTGAT | 1420
100 | TTCACGCTCCGCAAGCTCGCTCCTTTCGGGACGCAG | 738

Row | Sequence | RUNX1 binding intensity
101 | TATACCGTACAGGTGGTCAAAAGGACGTTCAAGTTA | 822
102 | TGGAGTGGAGGCAGTGGTGTTACCACAGCTCAGAGG | 751
103 | GCTGACCCGTAAGCGCTCGTGACCACCATCTCCGAC | 894
104 | CCCAGAGTCCAGAATCGCTGCCTGCGGCTTGACACA | 771
105 | TTCGCTCCCTGAACCGCGTCGCTTCATGAGCCGCGC | 814
106 | TCACAAAACCACTGGAGGTAACGTCCTCCATTTTTT | 798
107 | GCTTTTTGCGGCTGCGCGGGCTCCCTGGAGTCCTGC | 763
108 | AAGCAACCGCCGAGGGGAGACGCCGAAAGTCCCGCC | 812
109 | CACCTCAGCTTGCTGAGTAGCTGGGACCACAGGCGT | 743
110 | TCAACGCCACCACAAAGAGACGCCCGGGAGAAGCCT | 1020
111 | ACTTCCAGGGAGCCCCATAGTCCAGAAACCCACACA | 1010
112 | CACTGCCTGCCCTCTTCCACTTTCAAAACCACATCA | 2410
113 | CTGTCTCCGAGTAAAGTAGGGTGTGTGGGTCACATG | 746
114 | GCATGCGCCACAGACCATGCACTGGATTGGGCGCCT | 737
115 | TCTTCAGCAGCAAGACCCTGGTCTAGCCACAAGCCT | 718
116 | CGTGGCCGAAGCCGCGGGGACTGCGGGGGCGGAGTG | 759
117 | GGCACAGGCTCACCGCGCAGGCAGGGAGCAGCGGTA | 732
118 | GCCGTCCCCACCGCTCGCAGCCACCAGGCAACCCCG | 991
119 | CTTGTGCAGCTGCGGTTCTCAGCAGCCGCGGGCGGA | 1180
120 | GGAGCCGCAGCCGAGCTCCGTGTCCACTCCCGGGTT | 870
121 | CAAGGGAACGTCCTTAAACAGCTTGTGGTATTGCTG | 842
122 | GGGCCCCCTGAAAGAGCTTTGACCGCTCGAGCCTGC | 740
123 | AGGAGAGGTTGTTGCTTGAAGGTGTGGTCTCCTCCA | 661
124 | CCATTGGCGGGCGGTTTGAATGACGGAGGTGACGGC | 772
125 | CTCTTCCAGCAAGCCTTCCCTGACCACTGCTTGCTC | 1060
